# Results as given in publication PMC6919601, “Identification of Plasmodium dipeptidyl aminopeptidase allosteric inhibitors by high throughput screening” (PLoS ONE, 2019).
# In all, about 110,000 compounds went through this assay and about 230 (0.21%) showed an effect of 50% or more. Some of the results follow.
# Target: DPAP1 (Plasmodium falciparum, UniProt Q8IIJ9)
# Experiment: primary screen, percent inhibition; read by cleavage of a fluorogenic dipeptide substrate; higher = more effect of the substance
# Design: species or system P. falciparum D10 trophozoite lysates; single well
# 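Further: 30 min substrate incubation versus DMSO and 10 µM JCP410 controls.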
# DPAP1, sequence (Q8IIJ9 whole entry, looked up): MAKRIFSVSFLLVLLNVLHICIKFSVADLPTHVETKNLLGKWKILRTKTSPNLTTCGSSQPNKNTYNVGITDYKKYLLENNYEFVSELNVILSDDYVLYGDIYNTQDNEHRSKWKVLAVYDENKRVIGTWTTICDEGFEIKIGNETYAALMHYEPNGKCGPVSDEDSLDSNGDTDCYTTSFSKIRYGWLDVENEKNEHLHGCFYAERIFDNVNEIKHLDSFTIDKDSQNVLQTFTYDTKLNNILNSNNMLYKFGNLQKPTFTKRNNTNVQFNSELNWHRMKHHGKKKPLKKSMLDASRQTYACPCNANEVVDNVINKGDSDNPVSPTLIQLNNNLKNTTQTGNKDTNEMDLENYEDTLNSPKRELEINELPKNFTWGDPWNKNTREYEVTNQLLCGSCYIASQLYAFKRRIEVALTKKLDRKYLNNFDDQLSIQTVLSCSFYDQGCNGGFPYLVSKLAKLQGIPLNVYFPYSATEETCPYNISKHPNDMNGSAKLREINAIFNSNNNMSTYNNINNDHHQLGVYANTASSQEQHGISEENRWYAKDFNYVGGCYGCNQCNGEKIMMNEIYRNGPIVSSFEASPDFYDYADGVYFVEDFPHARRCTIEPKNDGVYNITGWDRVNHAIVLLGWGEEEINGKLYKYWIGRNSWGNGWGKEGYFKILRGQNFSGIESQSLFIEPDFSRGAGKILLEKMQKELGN
row,SMILES,% Inhibition @ 10 uM [%]
1,CCOC(=O)c1cc2c(=O)n3ccccc3nc2n(C(C)C)/c1=N\C(=O)C(CC)c1ccccc1 (stereo not drawn),4.37
2,CCOC(=O)c1c(NC(=O)COc2cccc(Cl)c2)sc2c1CCC(C)C2 (stereo not drawn),1.58
3,Cc1cc(NC(=O)c2cc(-c3ccc(F)cc3)on2)n(-c2ccccc2)n1,-0.601
4,O=C(CNS(=O)(=O)c1cccs1)N1CCC(Cc2ccccc2)CC1,-1.31
5,Cc1ccnc(O)c1,-1.08
6,O=C(c1ccc2c(c1)OCO2)N1CCC(CN2C(=O)c3cccc4cccc(c34)C2=O)CC1,-6.57
7,Cc1cc(S(=O)(=O)Nc2ccc(O)cc2)ccc1Cl,-1.29
8,CCOC(=O)c1cc(C)n(CC2CCC(C(=O)Nc3nccs3)CC2)c1C (stereo not drawn),-3.47
9,O=C(NCCCNC(=O)[C@@H]1C[C@@H]1c1ccccc1)[C@H]1C[C@H]1c1ccccc1,2.95
10,Cc1ccc2c(c1)c1c3n2CCN(CC(C)O)C3CCC1 (stereo not drawn),2.47
11,O=C(COc1ccc2c(c1)C(=O)CC1(CCCCC1)O2)NCc1ccc(F)cc1,1.37
12,O=C(CN1C(=O)c2ccccc2C1=O)Oc1ccc([N+](=O)[O-])cc1,-4.06
13,CCOC(=O)N1CCC(NC(=O)c2cc(-c3ccc(F)cc3)[nH]c2C)CC1,6.06
14,CCOc1ccc(CNC(=O)CSCc2cnn(-c3ccccc3)c2-n2cccc2)cc1,3.24
15,N#CC1=C(N)Oc2c(O)nc(S)nc2C1c1ccccc1 (stereo not drawn),-8.12
16,CC(=O)c1[nH]c2ccccc2c1-c1ccccc1,0.132
17,Cc1occc1-c1nc(-c2ccccc2)no1,-0.48
18,CC1(C)CC(=O)C2=C(C1)N=C(S)C(C#N)C2c1ccc(Br)cc1 (stereo not drawn),20.1
19,Clc1ccc(-n2ncc3c(NCc4ccccn4)ncnc32)cc1,-7.64
20,CCOc1nonc1NC(=O)CSc1nc2ccccc2s1,-3.26
21,COc1ccc(C(=O)NC(CC(=O)O)c2ccc(OC)c(OC)c2)cc1OC (stereo not drawn),-1.47
22,Cc1c(Cl)cccc1-n1ncc(C(=O)Nc2cccnc2)c1C1CCN(C(=O)OC(C)(C)C)CC1,4.76
23,CC(C)CC(NC(=O)c1ccc(NC(=O)N(C)[C@@H]2CCN(Cc3ccccc3)C2)cc1)C(=O)NCC#N (stereo partly drawn),-2.35
24,C/C=C(\C)CN1CCN(C(=O)OCC)CC1,-4.04
25,O=C(Nc1ccc(Br)cc1)c1cccnc1,0.827
26,CCOC(=O)C1=C(c2ccccc2)OC(N)=C(C#N)C12C(=O)Nc1ccc(C)c(Br)c12 (stereo not drawn),2.7

row,SMILES,% Inhibition @ 10 uM [%]
1,Cc1cc(C(=O)NCCCN2CCCC2=O)c2c(C)nn(-c3ccccc3)c2n1,-6.86
2,CCCCNC(=O)CCc1nc2cccnc2n1Cc1ccccc1,3.96
3,Cc1onc(-c2ccccc2)c1C(=O)NC(C)C,1.88
4,CCN(Cc1ccccc1)c1c(-c2ccccc2)c(=O)c1=O,7.14
5,COCCNC(=O)Cn1nc(C)n2c(cc3ccccc32)c1=O,4.55
6,O=C(CCN1N=C(c2ccccc2)CCC1=O)NCC1CCCO1 (stereo not drawn),-1.79
7,CCOC(=O)NC(=O)Nc1ncccn1,1.32
8,Cc1ccc(C(=O)NCC(C)(C)CNC(=O)c2ccc(C)o2)o1,-2.46
9,CC(=O)c1cc(C(=O)Nc2nccs2)c2ccccn12,1.44
10,COc1ccc(OCC(=O)Nc2nc(-c3ccc(OC)cc3)cs2)cc1,-4.5
11,Cc1ccc(-c2csc3ncnc(N4CC(C)OC(C)C4)c23)cc1 (stereo not drawn),-1.22
12,COc1ccc2c(c1)C=C1C(=CC(=O)CC1(C)C)O2,-4.67
13,CCOC(=O)c1c(NC(C)=O)sc([N+](=O)[O-])c1-c1ccccc1,-5.35
14,Cc1ccc(S(=O)(=O)NC(C)(C)C)cc1[N+](=O)[O-],-2.55
15,CCCN(CCC)S(=O)(=O)c1ccc([N+](=O)[O-])cc1,7.87
16,Cc1cccc2c3nn4c(S)n[nH]c4nc-3nc12,2.56
17,CCN(CC)CCCOc1ccc(C)cc1C,1.35
18,Cc1cc(O)c(C2=Nc3ccccc3SC(c3ccc4c(c3)OCO4)C2)c(=O)o1 (stereo not drawn),-2.18
19,CCc1nnc(NC(=O)Cn2ncc3c4ccccc4nc-3c2O)s1,-2.96
20,O=C1O/C(=C\c2ccc3ccc(Cl)cc3n2)c2ccccc21,-5.38
21,c1cc(N2CCOCC2)nnc1N1CCOCC1,-0.0508
22,CC(C)OCCCNc1nc2c(=O)n(C)c(=O)n(C)c2[nH]1,-1.02
23,Cc1ccc(-n2c(C)cc(/C=C3/NC(=O)NC3=O)c2C)nc1,-2.5
24,CC1CCN(C(=O)Cn2ncc3c4ccccc4n(Cc4ccccc4)c3c2=O)CC1,4.95
25,COc1ccc(/C=C2/NC(=O)N(c3ccccc3)C2=O)c(C)c1,-3.72
26,Cc1ccc(OCCCCn2ccnc2)c(C)c1,1.35

row,SMILES,% Inhibition @ 10 uM [%]
1,CN1CCN(C/C=C/c2ccc(N(C)C)cc2)CC1,-4.04
2,O=C1/C(=C/c2ccco2)N=C(N2CCOCC2)N1c1cccc(Cl)c1,1.21
3,CCOc1cccc(NC(=O)c2ccccc2C)c1,0.145
4,COc1ccc(CC(=O)n2nc(-c3ccccc3)nc2NCc2ccccc2)cc1OC,2.31
5,OC1CCCN(Cc2cc(F)ccc2F)C1 (stereo not drawn),-5.89
6,CC(=O)c1nn(-c2ccc(Br)cc2)c(-c2cccs2)c1C#N,-1.38
7,Cc1ccc(-n2ncc3c(NCc4ccccn4)ncnc32)c(C)c1,-3.74
8,CCOCC(O)CSCc1ccccc1 (stereo not drawn),-1.22
9,COc1ccccc1CC(=O)Nc1ccccc1C(=O)O,-4.72
10,Cn1cc(Cl)c(C(=O)Nc2cn(Cc3ccc(Cl)cc3)nc2Br)n1,1.02
11,COc1ccccc1NC(=O)c1c(OC)cccc1OC,-2.15
12,OC1CCN(C(=S)NC23CC4CC(CC(C4)C2)C3)CC1,7.02
13,COc1ccc(C(=O)CC2(O)C(=O)N(Cc3ccc(Cl)cc3)c3ccccc32)cc1OC (stereo not drawn),0.993
14,COc1cc2c(cc1OC)CN(Cc1ccc3c(c1)OCO3)CC2,-2.56
15,CSc1nn(CCc2ccncc2)c(=S)s1,5.8
16,Cc1ccc(-c2ccc(/C=C(\NC(=O)c3ccccc3)C(=O)NCC3CCCO3)o2)cc1 (stereo not drawn),-3.04
17,COc1ccc(-c2noc(CC(=O)N(C)Cc3ccccc3)n2)cc1,-1.39
18,COc1ccc(C(=O)N/C(=C\c2ccccc2)C(=O)NCCO)cc1,-5.34
19,CC1=C(C(=O)OC2CCCC2)C(c2cccc(F)c2)C2=C(O)CCCC2=N1 (stereo not drawn),0.916
20,Cc1ccc(S(=O)(=O)CCSc2cccc(C(=O)Nc3cccc(F)c3)c2)cc1,-1.74
21,COc1ccc(Cl)c(NC(=O)c2sc3nc(-c4ccncc4)ccc3c2N)c1,1.86
22,CCOc1ccc(CCNC(=O)CCc2c(C)nc3ncnn3c2C)cc1OCC,2.93
23,CCCCN(CC#CC(O)(c1ccccc1)c1ccccc1)CCO,-6.95
24,Nc1c([N+](=O)[O-])nnc2nc(-c3ccccc3)nn12,1.66
25,CCCC1=NN2C(=N)/C(=C\c3coc4ccccc4c3=O)C(=O)N=C2S1,5.77
26,COc1cc(OC)cc(C(=O)NC2CCCc3ccccc32)c1 (stereo not drawn),2.48

row,SMILES,% Inhibition @ 10 uM [%]
1,CCCC1=C(C(=O)OCC)C2(C(=O)Nc3ccccc32)C(C#N)=C(N)O1 (stereo not drawn),-2.5
2,CCc1cc2c(cc3c(=O)n(CC(=O)NCCc4ccccc4)nc(CC)n32)s1,0.0198
3,CN1Cc2c(N3CCOCC3)nc(SCc3ccccc3)c(C#N)c2CC1(C)C,-2.8
4,CC(C)N(Cc1nc(-c2ccccc2)no1)C(=O)c1ccccc1Cl,-4.82
5,CN1CCN(C(=O)/C(=C/c2cn(C)c3ccccc23)NC(=O)c2ccco2)CC1,3.24
6,O=C(c1cccs1)N(Cc1ccc(Cl)cc1)Cc1ccco1,-0.45
7,Cc1cc(C)c2oc(C(=O)N(Cc3cccc(Cl)c3)C3CCS(=O)(=O)C3)cc(=O)c2c1 (stereo not drawn),5.06
8,COc1ccc(CCNCc2ccncc2)cc1,26.6
9,CC(=O)N1N=C(c2ccc(O)cc2)CC1c1ccccc1 (stereo not drawn),5.12
10,CCN(CC)c1ccc(/C=C(\C#N)c2nc3ccccc3[nH]2)c(O)c1,-4.75
11,CC12CN(C(=O)c3ccccc3)CC(C)(CN(C(=O)c3ccccc3)C1)C2,1.67
12,COc1ccc(C=O)cc1CSc1ccccn1,17
13,O=C(Nc1cccnc1)C1c2ccccc2C(=O)N2CCc3ccccc3C12 (stereo not drawn),-3.31
14,CCOc1cccc(/C=C2\SC(=O)N(Cc3ccccc3)C2=O)c1O,1.21
15,Cc1cc(C)n(CCCO)c(=O)c1C#N,-9.24
16,Cc1ccc(C2c3[nH]c4ccccc4c3CC3C(=O)N(C)C(=S)N32)cc1 (stereo not drawn),9.53
17,CCOc1cccc(NCc2ccccc2)c2c(C)nc(C)c1-2,-0.85
18,Cc1ccc(-c2cn3nc(N4CCCC(C(=O)NCc5ccc(Cl)cc5)C4)sc3n2)cc1 (stereo not drawn),-5.88
19,Cc1ccc2cc(C#N)c(SCC(N)=O)nc2c1,-0.413
20,CC1=C(C(=O)Nc2cccnc2)C(c2ccc3c(c2)OCO3)n2nc(CCCO)nc2N1 (stereo not drawn),-10.7
21,O=C(c1ccc2c(c1)OCO2)N1CCN(c2ncccn2)CC1,-2.82
22,Cc1ccc2oc(-c3ccc(O)cc3)nc2c1,-3.69
23,COc1cc(OC)c(C2C(C#N)=C(N)Oc3[nH]nc(-c4ccc(C)cc4)c32)cc1OC (stereo not drawn),-1.19
24,Cc1ccc2c(cnn2C(=O)CCCC(=O)NC2CCCC(C)C2C)c1 (stereo not drawn),-4.71
